The other results are listed elsewhere or left out. Further columns of the screen follow, without active or inactive calls.
Key:
Experiment in all cases: Primary Screen for Target Class Profiling of Small Molecule Inhibitors of Methyltransferases
[1] = biological target: Glycine N-methyltransferase (Homo sapiens) (UniProt Q14749); settings: purified enzyme, MTase-Glo SAH luminescence; measured here: GNMT inhibition; at 40 µM; stronger effect = lower value
Summary of the method: (§1)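 Each enzyme was reacted with SAM and its substrate, with compounds tested once at 40 uM; SAH formed was read by MTase-Glo luminescence.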

[2] = biological target: Guanidinoacetate N-methyltransferase (Homo sapiens) (UniProt Q14353); settings: purified enzyme, MTase-Glo SAH luminescence; measured here: GAMT inhibition; at 40 µM; stronger effect = lower value
Summary of the method: as §1

[3] = biological target: Histamine N-methyltransferase (Homo sapiens) (UniProt P50135); settings: purified enzyme, MTase-Glo SAH luminescence; measured here: HNMT inhibition; at 40 µM; stronger effect = lower value
Summary of the method: as §1

[4] = biological target: Nicotinamide N-methyltransferase (Homo sapiens) (UniProt P40261); settings: purified enzyme, MTase-Glo SAH luminescence; measured here: NNMT inhibition; at 40 µM; stronger effect = lower value
Summary of the method: as §1

[5] = biological target: Phenylethanolamine N-methyltransferase (Homo sapiens) (UniProt P11086); settings: purified enzyme, MTase-Glo SAH luminescence; measured here: PNMT inhibition; at 40 µM; stronger effect = lower value
Summary of the method: as §1
% is set by controls: 0 for no effect and ±100 for the full control effect.

| Compound | activity change, negative = inhibition [1] | activity change, negative = inhibition [2] | activity change, negative = inhibition [3] | activity change, negative = inhibition [4] | activity change, negative = inhibition [5] |
| --- | --- | --- | --- | --- | --- |
| Cc1ccc(CNC(=O)CCCn2ccc3cc(S(=O)(=O)N4CCCC4)ccc32)o1 | 0.981% | 0.969% | 1.95% | 3.77% | 4.23% |
| COc1ccccc1-n1cc(C(=O)N[C@H](c2cnn(C)c2)C2CC(O)C2)cn1 (stereo partly drawn) | -2.48% | -5.43% | -2.73% | -2.99% | -7.68% |
| Cc1cc2c(cc3n2CC(C)(C(=O)NC2CCCCCCC2)N(Cc2ccc4c(c2)OCO4)C3=O)o1 (stereo not drawn) | -8.12% | 1.48% | 0.78% | -11.5% | -2.83% |
| CCOc1ccc(C(=O)CSc2nnc3n(C)c(=O)c4ccc(C(=O)NC(C)CC)cc4n23)cc1 (stereo not drawn) | 2.21% | 0% | 3.43% | 3.44% | 3.85% |
| CCc1cccc(NC(=O)Cn2nc3nc(Nc4ccc(C)cc4)ccn3c2=O)c1 | -0.401% | 0.277% | 3.18% | 2.91% | 2.32% |
| CC(=O)N[C@@H](C(=O)O[C@H]1CCC(C)(C)[C@@H]2CCC3=C(COC3=O)[C@@]12C)C(C)C | -2.08% | -3.66% | 4.52% | -16% | -0.746% |
| CCCN1C(=O)c2c(C(=O)NCc3ccccc3OC)ncn2CC1(C)C(=O)NCCC(C)C (stereo not drawn) | 1.39% | 1.09% | 3.97% | 3.09% | 6.5% |
| CN(C)[C@@H]1C[C@@H](CO)N(C(=O)c2csc3nc(-c4ccccc4Cl)cn23)C1 | -2.52% | 1.44% | -17.3% | -1.88% | -2.01% |
| CCCC1c2cccn2CCN1C(=O)Nc1cc(Cl)ccc1C (stereo not drawn) | -3.48% | 0% | -36.2% | -2.08% | 3.61% |
| COc1ccc(N2CC(COc3ccccc3)Oc3nc(C)ccc3C2=O)cc1 (stereo not drawn) | -8.25% | 0.774% | 0.743% | -2.27% | -2.77% |
| COc1ccc(-c2cccc(C(=O)NC3CCOCC3)c2)nn1 | -3.18% | 1.72% | 0.467% | 0.245% | -0.184% |
| COCCN1CCC(N2CCN(C(=O)c3ccsc3)CC2)C1=O (stereo not drawn) | -1.24% | 2.37% | 2.38% | -1.45% | 2.28% |
| O=C(CCCCc1ccc2ccccc2c1)C(F)(F)F | 3.45% | 6.07% | 7.8% | -8.1% | 6.33% |
| O=C(c1ccc(F)cc1)N1CCCCCC1c1nnc(-c2ccccc2)o1 (stereo not drawn) | -6.16% | -8.06% | -6.5% | -16.1% | -9.53% |
| COc1cccc(N2CCN(C(=O)Cn3ncc4c3-c3ccccc3OC4)CC2)c1 | – | 5.68% | – | -10.6% | 1.76% |
| CC(C)=CCc1cc2c(cc1O)OC[C@H]1c3ccc(O)cc3O[C@@H]21 | -0.804% | -19.4% | -24.6% | -31.4% | -12.2% |
| CCc1ccc(N2CC(c3noc(-c4sccc4C)n3)CC2=O)cc1 (stereo not drawn) | -3.36% | 1.73% | 2.18% | -3.92% | -10.8% |
| NC(=O)[C@H](Cc1ccccc1)NC(=O)[C@H](CCCN=C(N)N)NC(=O)C12CC3CC(CC(C3)C1)C2 | 3.9% | 4.1% | 7.33% | -5.58% | 4.59% |
| CC(C)n1c(=O)c2ccc(C(=O)NC3CCCC3)cc2n2c(=O)n(CC(=O)Nc3ccccc3F)nc12 | -1.08% | 0.832% | 8.54% | -3.75% | 0.176% |
| NC(=O)[C@H](Cc1ccc(O)cc1)NC(=O)[C@@]1(O)C[C@@H](O)[C@H](O)[C@@H](NC(=O)c2ccc(F)c(Cl)c2)C1 | -6.61% | -10.6% | -4.09% | -11.4% | -7.88% |

| Compound | activity change, negative = inhibition [1] | activity change, negative = inhibition [2] | activity change, negative = inhibition [3] | activity change, negative = inhibition [4] | activity change, negative = inhibition [5] |
| --- | --- | --- | --- | --- | --- |
| CCOC(=O)c1cc2n(n1)CC(C)(C(=O)NCc1ccccc1)N(c1ccc(Cl)cc1)C2=O (stereo not drawn) | 0.754% | 4.23% | -0.994% | -0.277% | 1.21% |
| CCNC(=O)Nc1ccc2ncc(Nc3ccc(C)cc3)nc2n1 | -0.69% | -12.4% | 5.32% | -21.4% | -10.3% |
| CC(C)n1c(=O)c2ccc(C(=O)NC3CCCC3)cc2n2c(=O)n(Cc3ccccc3)nc12 | 3.8% | 0% | 8.14% | 5.22% | 5.98% |
| CCCN1C(=O)c2cc(C(=O)NCCN3CCOCC3)nn2CC1(C)C(=O)NC1CCCC1 (stereo not drawn) | 3.79% | 0% | 2.49% | 0.692% | 0.579% |
| CC1(C(=O)NCc2ccccc2)Cn2c(cc3ccccc32)C(=O)N1C1CCCCC1 (stereo not drawn) | 1.9% | 3.49% | 9.05% | 1.92% | 0.298% |
| CCN(CC)C(=O)[C@@H]1CCC[C@@H](NCc2cccc(OC)c2)CN(C)C(=O)C1 | -0.952% | -4.89% | 3.01% | -0.469% | 2.95% |
| Cc1ccc(-c2ncccn2)c(C(=O)N2C[C@H](COc3ccc(F)cn3)CC[C@H]2C)c1 | -7.94% | -9.8% | 6.56% | -15.6% | -3.92% |
| CCNC(=O)[C@@H]1CCCN1C(C)(C)C(=O)NC | -3.45% | -9.46% | -3.55% | -14.1% | 8.31% |
| NC1CC(c2cc(N3CCN(c4nnc(C(F)(F)F)s4)CC3)ncn2)C1 (stereo not drawn) | -3.92% | 4.66% | -13.6% | -7.13% | -4.37% |
| COc1ccc(N(C(=O)c2ccccc2C)S(=O)(=O)c2ccc3c(c2)n(C)c(=O)n3C)cc1 | 2.73% | 0.937% | 6.29% | 5.83% | 4.2% |
| O=c1[nH]c2cc(C(F)(F)F)ccc2n1-c1cc(C(F)(F)F)ccc1O | -6.2% | 9.14% | 6.48% | -12.6% | -3.46% |
| CCOC(=O)c1cc2n(n1)CC(C)(C(=O)NCc1ccccc1)N(c1ccc(C)cc1)C2=O (stereo not drawn) | 3.71% | 0% | 10.2% | 8.82% | 3.08% |
| Cc1onc(C(=O)NCCc2noc(-c3ccncc3)n2)c1Cn1cc(Cl)cn1 | -4.91% | -1.11% | -0.706% | -4.19% | 11% |
| CCC(C)NC(=O)c1ccc2c(=O)n(CCC(C)C)c3nn(CC(=O)Nc4ccccc4)c(=O)n3c2c1 (stereo not drawn) | -1.77% | 1.37% | -3.33% | -4.23% | -4.2% |
| Cc1ccc(CCN2C(=O)Cn3cccc3C2C(=O)NC2CCCCC2C)cc1 (stereo not drawn) | -2.27% | 5.64% | -0.515% | 2.96% | -5.1% |
| CCc1nccc(CN2CCCC(CC3CC3)(C(=O)O)C2)n1 (stereo not drawn) | -2.07% | -5.04% | -2.82% | -14.5% | -3.01% |
| Cc1ccc(N2C(=O)c3cc(-c4ccco4)nn3CC2(C)C(=O)NC2CCCCC2)cc1C (stereo not drawn) | -11.4% | -11.3% | 4.42% | -5.16% | -2.77% |
| CC(C)n1cc(CN2CCC(CO)(Cc3ccccc3Cl)CC2)cn1 | -3.29% | -3.68% | -36.8% | -11.3% | -8.86% |
| N[C@@H](CCCC(=O)O)C(=O)O | 3.61% | 9.15% | 8.1% | -8.82% | -3.54% |
| Cc1cccc(N2CCN(C(=O)CCc3nnc4n(CCc5ccccc5)c(=O)c5ccccc5n34)CC2)c1C | -2.71% | 0% | 0.158% | -10.5% | -4% |

| Compound | activity change, negative = inhibition [1] | activity change, negative = inhibition [2] | activity change, negative = inhibition [3] | activity change, negative = inhibition [4] | activity change, negative = inhibition [5] |
| --- | --- | --- | --- | --- | --- |
| COCCN1CCCCCC(O)c2cc(C(=O)NCc3ccc(F)cc3)ccc21 (stereo not drawn) | -7.65% | -1.83% | -12% | -2.47% | -4.82% |
| Cc1cc2c(cc1S(=O)(=O)N1CCN(c3ccccn3)CC1)n(C)c(=O)n2C | 0.642% | 0% | 1.33% | -6.07% | -0.108% |
| O=C(Cc1cccc(F)c1)NCc1nnc2cc(-c3nc(C4CC4)no3)ccn12 | -3.01% | -2.57% | 1.33% | -11.3% | -0.106% |
| CCc1ccc(-c2cc3n(n2)CC(C)(C(=O)NC2CCCCC2)N(CCN(C)C)C3=O)cc1 (stereo not drawn) | 1.89% | 2.87% | 4.77% | 1.56% | 0.851% |
| CCCN(CCC)CCCN1C(=O)c2cc3oc(C)cc3n2CC1(C)C(=O)NC1CCCCCC1 (stereo not drawn) | 0.223% | 0% | -5.56% | -2.64% | 0.243% |
| O=c1c2ccccc2n2c(-c3cccc(F)c3)nnc2n1Cc1ccccc1 | 1.3% | 23.7% | 3.78% | -0.355% | -3.31% |
| CN1C(=O)c2cc(C(=O)NCc3ccccn3)nn2CC1(C)C(=O)NC1CCCCCC1 (stereo not drawn) | 3.23% | 0.392% | 11.5% | 11.4% | 7.03% |
| CC1(C)CC[C@]2(C(=O)O[C@@H]3O[C@H](CO)[C@@H](O)[C@H](O)[C@H]3O)CC[C@]3(C)C(=CCC4[C@@]5(C)CC[C@H](O[C@@H]6O[C@H](C(=O)O)[C@@H](O)[C@H](O)[C@H]6O)[C@@](C)(CO)C5CC[C@]43C)C2C1 (stereo partly drawn) | 5.72% | 2.71% | 5.81% | -12.3% | -1.67% |
| CO[C@H]1C(=O)N(C2CCN(C(=O)c3ccnn3C)CC2)[C@H]1c1ccncc1 | -2.14% | -3.74% | -3.09% | -4.06% | 4.5% |
| C=Cc1ccc(Cn2nc3n(CCC(C)C)c(=O)c4ccccc4n3c2=O)cc1 | -5.51% | 3% | 0.513% | -7.8% | -2.14% |
| CCN(CC)C(=O)C(c1ccccc1)N1CCN(c2ccc(NC(=O)c3ccccc3-c3cccnc3)cc2F)CC1 (stereo not drawn) | -3.89% | -2.28% | 5.36% | -16.9% | -2.89% |
| O=C(C[C@@H]1CCNC[C@@H]1Cc1cc(CSc2ccccc2)on1)N1CCN(c2ccccc2)CC1 | -7.79% | -10.1% | -11.4% | -19.4% | -14.9% |
| CC(=O)Nc1c2n(c3ccc(F)cc13)CC(C)(C(=O)NC1CCCCCC1)N(CC1CCCO1)C2=O (stereo not drawn) | -7.61% | -3.52% | -13.3% | -15.5% | -1.37% |
| CCCn1c(=O)c2ccccc2n2c(SCC(=O)NCc3ccccc3Cl)nnc12 | 0.218% | 0.309% | 5.04% | 1.7% | 3.58% |
| Nc1nc2c(c(N3CC[C@@H](O)C3)n1)CCN(C(=O)[C@H]1CCCO1)CC2 | -0.814% | 0.955% | 0.035% | 1.01% | 1.97% |
| CC(C)(O)CCc1ccc(CN2CCN([C@H]3CCCC[C@@H]3O)CC2)cc1 | -0.224% | 0.467% | -12.2% | 0.507% | -6.15% |
| COc1cccc(Nc2cccc(CN3CCCC(C)(NC(C)=O)C3)c2)c1 (stereo not drawn) | -4.5% | -7.06% | -18.4% | -12.5% | -6.41% |
| CC(C)NC(=O)CSc1nnc2n(CCc3ccccc3)c(=O)c3ccccc3n12 | 0.393% | 0.95% | 5.73% | 0.886% | 1.89% |
| COc1cccc(N2C(=O)c3cc(-c4cccs4)nn3CC2(C)C(=O)NC2CCCCC2)c1 (stereo not drawn) | -5.8% | 1.53% | 1.03% | 5.75% | -1.58% |

— PubChem BioAssay AID1745853 (National Center for Advancing Translational Sciences (NCATS), 2022)
